Test results as given in the RNAGym collection of RNA variant scans (doi:10.7554/elife.90254).
The source gives no read counts; variants with many changes may rest on few reads.

B1: LINE1-mini (parent)
chain: GGCAGAGCUCAACACAGCGUGGCAAAGUGGCUGUGGCUAGACUGCC

Variants of: B1
Assay: self-cleavage, relative activity (ratio to wild type); higher = more cleavage; in vitro, sequencing; the parent is a self-cleaving ribozyme

Row | Variant | self-cleavage
1 | A11G C18U G21C A24G | 0.07
2 | C8A A12C G35A | 0.1
3 | G5U G27U C37G | 0.11
4 | A4G U9A C31A G33U | 0.22
5 | A4U A12G C37U | 0.04
6 | U9C A12G G35A U43A | 0.04
7 | G2A G19C U38G | 0.27
8 | G33U C37U G40U G44C | 0.23
9 | G1C G17A C18A G27U | 0
10 | C15A A26U U28C G30U | 0.08
11 | C23A A24U A41U | 1.06
12 | C3A C10G A14G A26G U32A | 0.02
13 | C13A G21U G27U G33U U34A G40A G44C | 0.01
14 | G1C C10U A12U G35C | 0
15 | C10U C31U G33C | 0.05
16 | G7C A24G A26U | 0.17
17 | U20A G33A C37G | 0.03
18 | A6G C8A A26G U34G | 0.15
19 | C8A C18U U20A G21U C31G C45U | 0.11
20 | G5U G19A A41U | 0.33
21 | G1C A6U G7C | 0.04

Row | Variant | self-cleavage
22 | A4C G5U G44U | 0.09
23 | A26U G35C C42A G44A | 0.14
24 | C31G G36A C45G | 0.23
25 | A6G U9A U28C | 0.11
26 | C8G G19U G21C C31G U38A | 0.02
27 | G5A A11U G19A G21U | 0.02
28 | C23G G33U G36C | 0.02
29 | G22C C37A G44U | 0.04
30 | C10A A25U G33C | 0.02
31 | G2C U9A A25C A41G | 0.08
32 | A26G G33U G40U | 0
33 | A4C G17U C42A U43A | 0.1
34 | A16C A24C G27C G30U G36U C37G | 0.01
35 | C3U A11U C23U G33U | 0.01
36 | G1A G5A G36U | 0.06
37 | G5A A16G G27U C31G G33U | 0.01
38 | G17A A25U U34A | 0.16
39 | G2C C10A G21C A25U A26G C37G | 0.01
40 | A16U C31U U34G U38C | 0.04
41 | G21U G22U C45U | 1.7
42 | A12U G27C G36U A39G | 0.02

Row | Variant | self-cleavage
43 | A4G G19C G21U G27U U34C C37A | 0.06
44 | A12G G19U U20A | 0.02
45 | C10U A16U U43C | 0.03
46 | G1A G19U G21C A41U | 0.38
47 | G21A C37A C45A | 0.02
48 | A4C G29A G40U | 0.02
49 | A11C G17A C45A | 0.02
50 | A4C G5U G7U C15A G29C | 0.95
51 | A4G C8A G30A | 1.36
52 | A16C G36A A41C | 0
53 | A39U C45A C46U | 0.25
54 | G19U A39G U43A | 0.11
55 | A4U G7U C23U A24U G40A | 0.15
56 | C15A A39C C42A | 0.16
57 | A6U U20A C31U A39U C42U | 0.05
58 | A6U G21C C37A | 0.04
59 | G5A U9A C18A | 0.22
60 | C18A C23A U28G U34G | 0.07
61 | A4G C18A G33U | 0.13
62 | G19C G30A U38G | 0.03
63 | U20G C23G G33C G40A | 0.04

Row | Variant | self-cleavage
64 | G5U C8A A26C | 0.82
65 | C15G U20C C37U U43C | 0.06
66 | A4U U9A A11C C18G G36C A41C | 0.02
67 | U9G G17A C37A | 0.02
68 | C23G C31A G35U U38C C46U | 0.02
69 | G5A A12G G17U G33C | 0.1
70 | G2U G7U A14C G21U G22A G27U G35A | 0.04
71 | A14U C18A U34C | 0.08
72 | G1U C3G C10G | 0.02
73 | C15G A24G A25U U32A C37A U38G | 0
74 | G7U C31U G40C | 0.09
75 | C3G C8A U32C | 0.17
76 | C3U A26U G30A G44U | 0.08
77 | G19C G27A U34G | 0.1
78 | A4U G17C G22U A25C G44A | 0.07
79 | C3U C13U G19U C23G C37G | 0.02
80 | A26C G29A U38C C46A | 0.22
81 | G36A G40A G44C | 0.14
82 | G2A A6G G27U | 0.28
83 | A16G G29U G36A C42G | 0.01
